Results on 7 molecules are retold here after publication PMC4501709.

Results are given in words; binding and its absence hold for the method and conditions named. Some entries that bind do so weakly or less than the wild type.

Experiment [1] deals with T1, Light-harvesting-like protein 3 isoform Lil3:2 (Lil3.2, At5g47110) (Arabidopsis thaliana (from the AGI locus code)) (UniProt Q6NKS4).
T1 sequence: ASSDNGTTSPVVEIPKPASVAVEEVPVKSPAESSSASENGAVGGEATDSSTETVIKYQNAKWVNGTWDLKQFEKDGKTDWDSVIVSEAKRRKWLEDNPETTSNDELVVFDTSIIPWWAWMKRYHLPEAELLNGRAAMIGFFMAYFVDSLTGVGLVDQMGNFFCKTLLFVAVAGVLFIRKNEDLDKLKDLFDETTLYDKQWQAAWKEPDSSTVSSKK
Put plainly: two-hybrid; split ubiquitin system (DUALmembrane kit) in yeast NMY51; baits BTC-lil3:2, BTC-GGR or BTC-CHS (Cub fusions), preys NubG fusions (PRN); growth on selective medium SD-WLAH; serial dilutions.

The target of experiment [2] is T2, Geranylgeranyl reductase (GGR, ChlP, At1g74470, EC 1.3.1.83) (Arabidopsis thaliana (from the AGI locus code)) (UniProt Q9CA67).
T2 sequence: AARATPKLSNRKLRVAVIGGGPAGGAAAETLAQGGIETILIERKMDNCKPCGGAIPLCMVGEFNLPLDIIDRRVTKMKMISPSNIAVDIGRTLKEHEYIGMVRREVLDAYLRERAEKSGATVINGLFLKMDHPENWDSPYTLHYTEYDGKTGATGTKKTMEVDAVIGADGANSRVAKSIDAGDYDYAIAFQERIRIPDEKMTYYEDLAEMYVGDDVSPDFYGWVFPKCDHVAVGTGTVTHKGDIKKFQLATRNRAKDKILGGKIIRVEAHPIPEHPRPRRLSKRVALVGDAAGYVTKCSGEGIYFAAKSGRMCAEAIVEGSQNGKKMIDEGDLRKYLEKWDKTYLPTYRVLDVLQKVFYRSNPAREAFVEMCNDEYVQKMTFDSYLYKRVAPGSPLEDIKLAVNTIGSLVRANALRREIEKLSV
The experiment is described as above.

The target in experiment [3] is T3, Light-harvesting-like protein 3 isoform Lil3:1 (Lil3.1, At4g17600) (Arabidopsis thaliana (from the AGI locus code)) (UniProt Q9SYX1).
T3 sequence: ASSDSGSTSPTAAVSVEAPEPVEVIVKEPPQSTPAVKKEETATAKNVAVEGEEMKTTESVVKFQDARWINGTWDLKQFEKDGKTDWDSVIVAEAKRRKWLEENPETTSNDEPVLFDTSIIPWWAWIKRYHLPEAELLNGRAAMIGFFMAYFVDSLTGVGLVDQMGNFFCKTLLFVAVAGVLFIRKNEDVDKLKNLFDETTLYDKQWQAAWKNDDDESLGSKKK
The experiment is described as follows: two-hybrid; split ubiquitin system (DUALmembrane kit) in yeast NMY51; bait BTC-lil3:1 (Cub fusion), preys NubG fusions (PRN); growth on SD-WLAH supplied with 5 mM 3-aminotriazole; serial dilutions.

Experiment [4] has as its target T4, Chlorophyll synthase (CHS, ChlG, At3g51820, EC 2.5.1.62) (Arabidopsis thaliana (from the AGI locus code)) (UniProt Q38833).
T4 sequence: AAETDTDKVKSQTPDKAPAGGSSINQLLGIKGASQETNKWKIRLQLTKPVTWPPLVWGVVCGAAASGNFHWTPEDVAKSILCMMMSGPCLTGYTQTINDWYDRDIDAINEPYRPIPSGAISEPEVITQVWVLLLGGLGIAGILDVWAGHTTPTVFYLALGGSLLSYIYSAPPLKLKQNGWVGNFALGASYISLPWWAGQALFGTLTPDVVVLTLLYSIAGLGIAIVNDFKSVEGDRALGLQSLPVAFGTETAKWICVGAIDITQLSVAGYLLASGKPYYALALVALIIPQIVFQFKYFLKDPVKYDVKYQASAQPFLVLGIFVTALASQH
The experiment is described as follows: two-hybrid; split ubiquitin system (DUALmembrane kit) in yeast NMY51; baits BTC-lil3:2, BTC-GGR or BTC-CHS (Cub fusions), preys NubG fusions (PRN); growth on selective medium SD-WLAH; serial dilutions.

B1: Geranylgeranyl reductase (GGR, ChlP, At1g74470, EC 1.3.1.83) (enzyme, UniProt Q9CA67 44-467)
chain: AARATPKLSNRKLRVAVIGGGPAGGAAAETLAQGGIETILIERKMDNCKPCGGAIPLCMVGEFNLPLDIIDRRVTKMKMISPSNIAVDIGRTLKEHEYIGMVRREVLDAYLRERAEKSGATVINGLFLKMDHPENWDSPYTLHYTEYDGKTGATGTKKTMEVDAVIGADGANSRVAKSIDAGDYDYAIAFQERIRIPDEKMTYYEDLAEMYVGDDVSPDFYGWVFPKCDHVAVGTGTVTHKGDIKKFQLATRNRAKDKILGGKIIRVEAHPIPEHPRPRRLSKRVALVGDAAGYVTKCSGEGIYFAAKSGRMCAEAIVEGSQNGKKMIDEGDLRKYLEKWDKTYLPTYRVLDVLQKVFYRSNPAREAFVEMCNDEYVQKMTFDSYLYKRVAPGSPLEDIKLAVNTIGSLVRANALRREIEKLSV
For the molecule B1, the binding entry in experiment [1] is given as “no binding”; in experiment [2], “binds”; in experiment [3], “no binding”.

B2: Protochlorophyllide oxidoreductase B (PORB, At4g27440) (enzyme, UniProt P21218 67-401)
chain: QTAATSSPTVTKSVDGKKTLRKGNVVVTGASSGLGLATAKALAETGKWNVIMACRDFLKAERAAKSVGMPKDSYTVMHLDLASLDSVRQFVDNFRRTETPLDVLVCNAAVYFPTAKEPTYSAEGFELSVATNHLGHFLLARLLLDDLKKSDYPSKRLIIVGSITGNTNTLAGNVPPKANLGDLRGLAGGLNGLNSSAMIDGGDFDGAKAYKDSKVCNMLTMQEFHRRFHEETGVTFASLYPGCIASTGLFREHIPLFRALFPPFQKYITKGYVSETESGKRLAQVVSDPSLTKSGVYWSWNNASASFENQLSEEASDVEKARKVWEISEKLVGLA
For B2, the binding entry in experiment [1] was “binds”; in experiment [2], “binds”; in experiment [4], “no binding”; in experiment [3], “binds”.

B3: Protochlorophyllide oxidoreductase A (PORA, At5g54190) (enzyme, UniProt Q42536 70-405)
chain: QAIATSTPSVTKSSLDRKKTLRKGNVVVTGASSGLGLATAKALAETGKWHVIMACRDFLKAERAAQSAGMPKDSYTVMHLDLASLDSVRQFVDNFRRAEMPLDVLVCNAAVYQPTANQPTFTAEGFELSVGINHLGHFLLSRLLIDDLKNSDYPSKRLIIVGSITGNTNTLAGNVPPKANLGDLRGLAGGLNGLNSSAMIDGGDFVGAKAYKDSKVCNMLTMQEFHRRFHEDTGITFASLYPGCIATTGLFREHIPLFRTLFPPFQKYITKGYVSESEAGKRLAQVVADPSLTKSGVYWSWNKTSASFENQLSQEASDVEKARRVWEVSEKLVGLA
Take B3: the binding result in experiment [1] is on record as “binds”; in experiment [2] it was “binds”; in experiment [4], “no binding”; in experiment [3], “binds”.

B4: Light-harvesting-like protein 3 isoform Lil3:1 (Lil3.1, At4g17600) (protein, UniProt Q9SYX1 40-262)
chain: ASSDSGSTSPTAAVSVEAPEPVEVIVKEPPQSTPAVKKEETATAKNVAVEGEEMKTTESVVKFQDARWINGTWDLKQFEKDGKTDWDSVIVAEAKRRKWLEENPETTSNDEPVLFDTSIIPWWAWIKRYHLPEAELLNGRAAMIGFFMAYFVDSLTGVGLVDQMGNFFCKTLLFVAVAGVLFIRKNEDVDKLKNLFDETTLYDKQWQAAWKNDDDESLGSKKK
Turning to B4, the values for the binding entry in experiment [2] and in experiment [4] were “no binding” and “binds”, respectively.

B5: Light-harvesting-like protein 3 isoform Lil3:2 (Lil3.2, At5g47110) (protein, UniProt Q6NKS4 43-258)
chain: ASSDNGTTSPVVEIPKPASVAVEEVPVKSPAESSSASENGAVGGEATDSSTETVIKYQNAKWVNGTWDLKQFEKDGKTDWDSVIVSEAKRRKWLEDNPETTSNDELVVFDTSIIPWWAWMKRYHLPEAELLNGRAAMIGFFMAYFVDSLTGVGLVDQMGNFFCKTLLFVAVAGVLFIRKNEDLDKLKDLFDETTLYDKQWQAAWKEPDSSTVSSKK
As to B5, the binding entry in experiment [2] is “no binding”; in experiment [4] it was “binds”.

B6: Chlorophyll synthase (CHS, ChlG, At3g51820, EC 2.5.1.62) (enzyme, UniProt Q38833 58-387)
chain: AAETDTDKVKSQTPDKAPAGGSSINQLLGIKGASQETNKWKIRLQLTKPVTWPPLVWGVVCGAAASGNFHWTPEDVAKSILCMMMSGPCLTGYTQTINDWYDRDIDAINEPYRPIPSGAISEPEVITQVWVLLLGGLGIAGILDVWAGHTTPTVFYLALGGSLLSYIYSAPPLKLKQNGWVGNFALGASYISLPWWAGQALFGTLTPDVVVLTLLYSIAGLGIAIVNDFKSVEGDRALGLQSLPVAFGTETAKWICVGAIDITQLSVAGYLLASGKPYYALALVALIIPQIVFQFKYFLKDPVKYDVKYQASAQPFLVLGIFVTALASQH
Turning to B6, the binding result in experiment [1], in experiment [4] and in experiment [3] was “binds” throughout.

B7: Protochlorophyllide oxidoreductase C (PORC, At1g03630) (enzyme, UniProt O48741 68-401)
chain: QTVTATPPANEASPEQKKTERKGTAVITGASSGLGLATAKALADTGKWHVIMACRNFLKAEKAARSVGMSKEDYTVMHLDLASLESVKQFVENFRRTEQPLDVLVCNAAVYQPTAKEPSFTAEGFEISVGTNHLGHFLLSRLLLDDLKKSDYPSKRMIIVGSITGNTNTLAGNVPPKANLGDLRGLASGLNGQNSSMIDGGEFDGAKAYKDSKVCNMLTMQELHRRYHEETGVTFASLYPGCIATTGLFREHIPLFRLLFPPFQKYITKGYVSEEEAGKRLAQVVSDPSLGKSGVYWSWNNNSSSFENQLSKEASDAEKAKKLWEVSEKLVGLA
For the molecule B7, the binding entry in experiment [1] was “binds”; in experiment [2], “binds”; in experiment [4] it was “no binding”; in experiment [3] it was “binds”.
